Over roughly 110,000 compounds, “z-score” has its median near -0.1; the highest 2% begin near 2. The list shows a part of the results. The source made the active and inactive calls.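 How the source made its calls: active means z-score in the third read window above 3 or below -3; inactive means the rest.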
Target: Metabotropic glutamate receptor 8 (Rattus norvegicus) (UniProt P70579)
Assay: rat mGluR8 modulators via GIRK flux, primary screen, cell-based, thallium flux, HTS (AID 488969)
Conditions: HEK293 rat mGluR8, GIRK (G protein-gated inwardly rectifying potassium channel) thallium flux, FluoZin2; at 10 µM; stronger effect = higher value; submaximal glutamate (EC20) added with thallium

Sequence of UniProt P70579 (P70579 whole entry, looked up): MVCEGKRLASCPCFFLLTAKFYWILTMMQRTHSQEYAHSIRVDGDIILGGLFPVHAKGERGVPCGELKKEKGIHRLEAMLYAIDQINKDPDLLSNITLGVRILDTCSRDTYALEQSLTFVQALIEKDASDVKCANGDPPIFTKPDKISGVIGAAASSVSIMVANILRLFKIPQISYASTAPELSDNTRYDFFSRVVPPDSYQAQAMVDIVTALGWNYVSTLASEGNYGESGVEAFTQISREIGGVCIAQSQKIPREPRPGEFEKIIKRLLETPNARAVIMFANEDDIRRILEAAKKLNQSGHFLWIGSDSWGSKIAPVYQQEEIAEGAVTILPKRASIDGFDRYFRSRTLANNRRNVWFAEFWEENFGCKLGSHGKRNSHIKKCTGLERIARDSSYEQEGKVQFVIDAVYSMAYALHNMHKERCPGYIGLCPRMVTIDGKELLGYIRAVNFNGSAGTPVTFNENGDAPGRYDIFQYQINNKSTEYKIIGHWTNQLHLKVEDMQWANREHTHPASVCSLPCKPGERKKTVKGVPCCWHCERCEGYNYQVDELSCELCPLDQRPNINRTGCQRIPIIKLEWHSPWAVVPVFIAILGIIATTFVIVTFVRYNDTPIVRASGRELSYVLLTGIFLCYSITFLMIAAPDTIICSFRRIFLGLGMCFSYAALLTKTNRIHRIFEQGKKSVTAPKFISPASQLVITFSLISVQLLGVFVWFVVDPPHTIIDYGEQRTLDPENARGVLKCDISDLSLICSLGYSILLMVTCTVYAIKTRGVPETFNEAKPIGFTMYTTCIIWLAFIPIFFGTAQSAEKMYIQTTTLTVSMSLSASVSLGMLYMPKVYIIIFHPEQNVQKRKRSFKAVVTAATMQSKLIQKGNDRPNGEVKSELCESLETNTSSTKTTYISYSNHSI

Compound | z-score
CC(=O)NC1CC2CCCC(C1)N2CC(=O)N1CCCc2ccccc21 (centres undefined) | 0.214
Cn1c(=O)n(-c2cccc(Cl)c2)c(=O)n1C | -0.242
NC(=S)N/N=C\c1ccc(-c2cccc(Cl)c2Cl)o1 | -0.413
C=CCSc1nc2ccccc2n1S(=O)(=O)c1ccc(Cl)cc1 | -0.0721
COc1cc(/C=C2\SC(=S)N(Nc3ccccc3)C2=O)cc(OC)c1OC | -0.0485
Cc1ccc(CNC(=O)C2CCN(S(=O)(=O)c3c(C)noc3C)CC2)cc1 | 0.615
CCCCCC(=O)N1CCN(CCN=CC2=C(O)CC(c3ccco3)CC2=O)CC1 (centres undefined) | -0.0293
CCc1cc(=O)oc2c(C)c(O)c(CN3CCCCC3)cc12 | 1.3
CCNC(=S)NNC(=O)c1cccn(Cc2ccc(Cl)cc2Cl)c1=O | -0.0504
O=[N+]([O-])c1ccc(CSc2nc3ccccc3[nH]2)cc1 | -0.23
CC(=O)Nc1ccc(N2C(=O)CC(N3CCN(Cc4ccc5c(c4)OCO5)CC3)C2=O)cc1 (centres undefined) | 0.0868
CCC(=O)Nc1cc(OC)c(NC(=O)c2ccccc2)cc1OC | 0.0667
Cc1cccc(OCCCC(=O)O)c1C | 1.14
COc1ccccc1CC(=O)Nc1ccc(O)cc1C(=O)O | 0.65
O=C(/C=C/c1cccs1)Nc1nc(-c2ccccc2)cs1 | -1.32
COc1ccc(C(=O)NCc2ccccc2)cc1Br | -0.234
O=C(O)c1ccc(-n2nnnc2Oc2ccccc2C(=O)N2CCOCC2)cc1 | -0.285
Cc1cccc(NC(=S)N2CCC(C(=O)c3ccc(F)cc3)CC2)c1C | active: 5.76
CCOC(=O)c1cc(OC(=O)c2cccc([N+](=O)[O-])c2)n(-c2ccccc2)n1 | -0.0578
CC1=C(C#N)C(c2ccoc2)C(C(=O)OCc2ccccc2)=C(N)S1 (centres undefined) | -0.776
Cc1ccccc1C(=O)NNC(=O)c1cc(N)cc([N+](=O)[O-])c1 | -0.0123
O=C(Nc1cnn(Cc2ccccc2)c1)c1nc2ncccn2n1 | -0.222

Compound | z-score
Clc1ccc(/C=N/Nc2nc(Cl)nc3ccccc23)cc1 | 2.24
CCCCNCc1cc(OCC)c(OCC(N)=O)cc1Br | 0.733
COc1ccc(NC(=O)C2CC(=O)N(c3cc(C)ccc3C)C2)cc1 (centres undefined) | -0.107
O=C(Cc1ccc(-n2c(=O)c3ccccc3n(Cc3ccccc3F)c2=O)cc1)NCC1CCCO1 (centres undefined) | -0.549
O=C(Nc1ccccc1C(=O)NCCCn1ccnc1)c1ccccc1 | 1.54
CCNC(=O)CN(C1CCCCC1)S(C)(=O)=O | 0.778
Cc1ccc2cccc(S(=O)(=O)Nc3c(C)n(C)n(-c4ccccc4)c3=O)c2n1 | -0.0715
Cc1cc(C(F)(F)F)nc(SCC(=O)c2cccc([N+](=O)[O-])c2)n1 | -0.0876
COc1ccc(NCc2ccc(OC)c(OC)c2)cc1 | 0.641
Cc1ccc(C(=O)N[C@H](C(=O)Nc2cc(Cl)cc(Cl)c2)C(C)C)cc1 | -0.228
Cc1c(C)n(C(=O)CN2CCC(C)CC2)c2ccccc12 | -0.157
CC(C)n1cc(-c2ccc(Cl)cc2)cc(C#N)c1=O | -0.0353
Cn1c(=O)[nH]c(Nc2ccc(F)cc2)c([N+](=O)[O-])c1=O | -0.196
COc1ccc(COC(=O)Nc2cc3c(C(F)(F)F)nn(C)c3s2)cc1 | -0.456
CC(=O)c1cccc(NC(=O)c2ccc(N(Cc3ccc(C)cc3)S(C)(=O)=O)cc2)c1 | -0.0293
O=C(CSc1ccccn1)N/N=C/c1ccccc1[N+](=O)[O-] | -0.375
C=CCn1c(SCCOc2ccc(OC)cc2)nnc1C(C)NC(=O)Cc1ccc(OC)cc1 (centres undefined) | -0.528
c1ccc(-c2nnc(CSc3nnc(-c4ccncc4)n3Cc3ccco3)o2)cc1 | -0.127
O=C(NC1CCCCCC1)C1C2C=CC3(CN(Cc4cccnc4)C(=O)C13)O2 (centres undefined) | 0.211
COc1ccc2c(c1)c1ccccc1n2C | -0.77
CCOC(=O)c1ccc2nc(Nc3nc4ccc(F)cc4s3)sc2c1 | 0.363
CCOc1cc(NC(=O)C2CCCO2)c(OCC)cc1NC(C)=O (centres undefined) | 0.115

Compound | z-score
CCOC(=O)N1CCN(C(=O)Cc2ccc(-n3c(=S)[nH]c4ccccc4c3=O)cc2)CC1 | -0.69
COc1ccc(NS(=O)(=O)c2ccc(NC(=O)c3ccc(N(C)S(C)(=O)=O)cc3)cc2)c(OC)c1 | -0.141
CCOC(=O)c1cccc(NC(=O)c2ccc(N(C)C)cc2)c1 | -1.1
CN(C)S(=O)(=O)c1ccc(/C(O)=C2/C(=O)C(=O)N(Cc3cccnc3)C2c2ccncc2)cc1 (centres undefined) | 0.122
CCOC(=O)c1sc2ccccc2c1OC(=O)c1ccccc1OC | -0.0231
CCOc1ccccc1NC(=O)Cn1c(=O)c2ccccc2n(CC)c1=O | -0.35
CCOC(=O)CNC(=O)CSc1nnc(-c2ccco2)n1Cc1ccco1 | 0.612
COC(=O)c1c(NC(=O)CSc2nc3ccccc3c(=O)n2Cc2ccco2)sc(C)c1C | 0.969
CCN(CCO)Cc1cc(=O)oc2c(C)c(C)ccc12 | 0.543
O=C(c1ccccc1)N1CCC(O)(c2cccnc2)CC1 | -0.0866
CCCc1nc2c(c(=O)c3ccccc3n2C)c(=O)n1C1CCCCCC1 | -0.719
COc1cc(C)c(/C=C(\C#N)C(=O)Nc2cccc(C)c2)cc1C(C)C | -0.021
CSCCC(NC(=O)c1ccc(Cl)cc1)C(=O)NC(C)(C)C (centres undefined) | -0.119
O=C(NCC(=O)N(CCN1CCOCC1)C(C(=O)NC1CCCC1)c1cccs1)c1ccco1 (centres undefined) | -0.231
O=C(CCCNC(=O)/C(=C/c1ccc(Br)cc1)NC(=O)c1ccccc1)OCc1ccccc1 | -2.26
COc1ccc(CCN2C(=O)CCC2(C)C(=O)NCc2cccnc2)cc1OC (centres undefined) | -0.282
CSc1ccc(/C=N/NC(=O)c2cc(O)cc(O)c2)cc1 | -0.318
CCOC(=O)c1sc(NC(=O)c2ccco2)nc1-c1ccccc1 | 0.0322
CCc1ccc(NC(=S)N2CCN(c3cccc(C(F)(F)F)c3)CC2)cc1 | -0.054
COCCN(C(=O)c1ccco1)c1nnc(-c2ccc(OC)c(OC)c2)s1 | 0.0431
CCOC(=O)N1CCN(C(=O)C2CCN(Cc3cccc(OCc4ccccc4)c3)CC2)CC1 | 0.0228
Cc1nc2c(-c3ccccc3)c(C)nn2c(N)c1-c1ccccc1 | -0.203

Compound | z-score
CCc1ccc(NC(=O)C2(c3ccccc3)CC2(Cl)Cl)cc1 (centres undefined) | -0.0619
CC(=O)Nc1ccc(S(=O)(=O)N2CCC(NC(=O)C(Cc3cccn3C)NC(C)=O)CC2)cc1 (centres undefined) | 0.29
CC(NC(=S)Nc1ccccc1Cl)C(c1cccs1)N1CCCC1 (centres undefined) | 0.0771
CC1=NOC(=O)/C1=C\c1ccc(-c2cccc(Cl)c2)o1 | -0.949
O=C(Nc1cc(S(=O)(=O)Nc2ccc(Cl)cc2)ccc1N1CCCCC1)c1ccc(F)cc1 | -0.239
Cc1cccc(OCC(=O)Nc2ccc3c(c2)OCCO3)c1 | -0.167
Cc1cc(NC(=O)Nc2ccc(F)cc2)no1 | -0.8
COc1ccc(C2Nc3ccccc3C(=O)N2Cc2ccccc2)cc1CSc1ccccn1 (centres undefined) | -0.275
Cc1ccc(S(=O)(=O)Nc2ccc(Br)cc2/C=N/n2cnnc2)cc1 | -0.433
Cc1cc(NC(=O)CCc2ccc(S(=O)(=O)N3CCOCC3)cc2)n(-c2ccccc2)n1 | 0.97
CCOC(=O)c1cc(-c2ccc(OC)cc2F)nc2c1c(C)nn2CCC#N | -0.177
C=CCOc1ccc(C2/C(=C(\O)c3c(C)[nH]c(C(=O)OC)c3C)C(=O)C(=O)N2CCN(C)C)cc1 (centres undefined) | 0.0791
Cc1ccnn2cc3c(=O)n(C)c(=O)n(C)c3c12 | -0.231
O=C(NNc1cc(N2CCOCC2)nc(N2CCOCC2)n1)C12CC3CC(CC(C3)C1)C2 | 0.223
CCCCCn1c(CN2CCCCC2C)nc2c1c(=O)n(C)c(=O)n2C (centres undefined) | -0.252
COc1ccc(C(=O)NNC(=O)c2ccccc2[N+](=O)[O-])cc1 | -0.0219
O=C(CN1C(=O)NC2(CCSC2)C1=O)N1CCN(c2ccc(F)cc2)CC1 (centres undefined) | 0.503
CC1=CC(C)(C)Nc2cc(C)c(C)cc21 | -0.0982
C/C=C/c1c(F)c(F)c(Oc2ccc(C(=O)O)cc2)c(F)c1F | -0.0372
Cc1cc2ccccc2n1CCNC(=O)COc1ccc2ccccc2c1 | 0.11
COc1ccc(OC)c(Nc2ncnc3c2cnn3-c2cccc(C)c2)c1 | 0.488
CNC(=S)N/N=C(\C)c1ccc(-n2ccnc2)cc1 | -0.579

Compound | z-score
Cc1ccc(/C=N/n2c(C)nnc2C)cc1 | -0.418
Cc1ccc(SCC(=O)Nc2ccc(N3CCN(C)CC3)c(F)c2)cc1 | 0.01
Cn1nnc2cc(C(=O)N3CCN(c4ccccc4)CC3)ccc21 | 0.231
CC(C)=CCC/C(C)=C/CCC(C)NCCN1CCNCC1 (centres undefined) | 1.32
CCC(=NCCc1c(C)[nH]c2ccc(C)cc12)C1=C(O)CC(c2ccccc2)CC1=O (centres undefined) | 0.969
CCNc1nc(Cl)nc(NNC(=O)C(C)Oc2ccccc2)n1 (centres undefined) | -0.658
Cc1ccc(NCCC#N)cc1C | -0.0143
O=[N+]([O-])c1ccc(N(c2ccccc2)c2ccccc2)cc1 | -1.59
COC(=O)c1cc(NC(=O)C23CCC(C)(C(=O)O2)C3(C)C)cc(C(=O)OC)c1 (centres undefined) | 0.577
COc1cccc(C(=O)Nc2cccnc2)c1 | -0.141
N#CC1=C(N)Oc2n[nH]c(-c3cccs3)c2C1C1C=CCCC1 (centres undefined) | -0.18
Cc1cc(N(CCO)CCO)ccc1C(c1ccc(N(CCO)CCO)cc1C)c1ccccc1Cl | -0.374
O=C(CN1CCN(Cc2cccc(Cl)c2)C1=O)NCc1ccccn1 | 0.34
Cc1cc(C(=O)Nc2c(C)n(C)n(-c3ccccc3)c2=O)on1 | -0.0853
CCC1S/C(=C(\C#N)C(=O)NCc2ccco2)N(c2ccc(F)cc2)C1=O (centres undefined) | -1.25
FC(F)(F)c1cnc(Oc2ccc(-c3nnco3)cc2)c(Cl)c1 | -0.503
CSc1nc(NCC(C)C)c2c3c(sc2n1)CN(C)CC3 | 0.139
CN1CC(=O)Nc2ccc(F)cc2C1=O | 0.186
COC(=O)c1ccc(C(=O)OC)c(NC(=O)C2CC2)c1 | -0.199
Cc1ccc(NC(=O)CSc2nccn2C)cc1S(=O)(=O)N1CCOCC1 | 1.53
Clc1ccccc1CO/N=C1\CCCc2nonc21 | -0.417
